Laboratory results from patent publication US10633448B2, “IGF-1R antibody-drug-conjugate and its use for the treatment of cancer” (PIERRE FABRE MEDICAMENT, priority 2014, dated 2020).

Assays:
[1] = target: T1, soluble recombinant human IGF-1R (Homo sapiens, UniProt P08069); assay: Biacore single cycle kinetics, around 600 RU captured h-IGF-1R; type: binding; settings: mean of four experiments, read-out: dissociation constant KD
T1 construct: IGF-1R hetero-tetramere composed of 2a chains and the extracellular domains of 2β chains; purchased R&D Systems 305-GR-50
Description: The dissociation constants (KD) of the binding of the antibodies on a recombinant soluble human-IGF-1R were defined by the ratio between the dissociation rate (koff) and the association rate (kon). The kinetic experiments were run on a Biacore X100 device using a CM5 sensor chip activated by a mouse anti-Tag His monoclonal antibody. Around 12000 RU of antibodies are chemically grafted on the carboxymethyldextan matrix using the amine kit chemistry.
The experiments were carried out at 25° C. with a flow rate of 30 μl/min using the HBS-EP+ buffer (GE Healthcare) as the running and sample dilution buffer. […]
The resulting sensorgrams were analysed by the Biaevaluation software with a 1:1 model. […]
For the 6 antibodies tested in this experiment the experimental data fitted well with an 1:1 model with significant koff values when the higher concentration was defined as a constant and the other four concentrations are calculated (see FIG. 18).
The dissociation constants (KD) calculated as the ratio: koff/kon and the half-live of the complexes calculated as the ratio: Ln(2)/koff are represented in the FIGS. 19 and 20. […]

[2] = target: T2, human IR (hIR) on hIR^+ transfected cell line (Homo sapiens, UniProt P06213); assay: FACS on hIR^+ transfected cell line; type: binding; settings: increasing concentrations
T2 construct: expressed in transfected cells; host or cells: NIH 3T3
Description: In order to verify the absence of binding of both murine and chimeric antibodies on hIR, a stable cell line expressing the human IR (hIR) was used. The recognition of human cell surface hIR by both murine and chimeric Ab was performed by FACS analyses. Increasing concentration of either the murine or the chimeric mAbs were incubated on the hIR^+ transfected cell line for 20 minutes at 4° C. in FACS buffer (PBS, 0.1% BSA, 0.01% NaN3). Cells were then washed 3 times and incubated with the appropriate secondary antibody coupled with Alexa 488 before being incubated for 20 additional minutes at 4° C. in the dark and then washed 3 times in FACS buffer. The binding of anti-IGF-1R antibodies was immediately performed on viable cells which were identified using propidium iodide (that stains dead cells). The binding EC50 expressed in molarity (M) was calculated using a nonlinear regression analysis (GraphPad Prims 4.0). The anti-hIR antibody clone GRO5 was used as positive controls. The murine and chimeric 9G4 antibodies were introduced as irrelevant antibodies.
The binding of the first humanized form of the c208F2 mAb was evaluated on MCF-7, COS-7 and NIH 3T3 IR^+ cell lines. Increasing concentrations of m208F2, c208F2 or hz208F2 VH3VL3 were added on each cell line for 20 min. at 4° C. […]

- Kd [1]: ~0.06 nM
B1: hz208F2 H026/L024: first humanized form of the 208F2 anti-IGF-1R mAb (antibody)
heavy: QVQLVQSGAEVKKPGASVKMSCKASGYTFTSYYIYWVKQAPGQGLEWLGWIWPGDGSTKYNEKFQGRVTLTADKSSNTAYMFLSSLRSEDTAVYFCASPMITPNYAMDYWGQGTLVTVSSASTKGPSVFPLAPSSKSTSGGTAALGCLVKDYFPEPVTVSWNSGALTSGVHTFPAVLQSSGLYSLSSVVTVPSSSLGTQTYICNVNHKPSNTKVDKRV[human IgG1 Fc not written out]
light: DIQMTQSPSSLSASVGDRVTISCRASQDISKYLNWYQQKPGKAPKLLIYYTSRLHSGVPSRFSGRGSGTDYSLTISNLQPEDFATYFCQQGSTLPYTFGGGTKVEIKRTVAAPSVFIFPPSDEQLKSGTASVVCLLNNFYPREAKVQWKVDNALQSGNSQESVTEQDSKDSTYSLSSTLTLSKADYEKHKVYACEVTHQGLSSPVTKSFNRGEC
- binding on cell surface of hIR^+ transfected cells [2]: absence of cross reactivity on the human insulin receptor
